Experimental data taken from PubChem BioAssay (NCI).
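The compound was tested at five concentrations on cells cultured in 96-well plates, with a 48-hour exposure period. Abbreviation: GI50, concentration required for 50% inhibition of growth.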 A number of entries come with more than one value. This list holds those alone. The source may hold further records. For part of these data: Records of one sample usually come from different ranges of test concentrations, not given here; some values may only mark the edge of a range.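 Definition used: TGI = concentration required for complete inhibition of growth.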 For part of these data: Results that share an entry repeat one measurement (runs, samples, wells, individuals or studies). A tag in brackets gives the origin of a value. Letters hold for one entry only.

Experiments:
Test in all cases: NCI anticancer screen, dose series, 48 h
CCRF-CEM leukemia = system: CCRF-CEM leukemia
DMS 114 small cell lung = system: DMS 114 small cell lung
DMS 273 small cell lung = system: DMS 273 small cell lung
SK-OV-3 ovarian = system: SK-OV-3 ovarian
RPMI-8226 leukemia = system: RPMI-8226 leukemia
A498 renal = system: A498 renal
A549 NSCLC = system: A549 NSCLC
COLO 205 colon = system: COLO 205 colon
EKVX NSCLC = system: EKVX NSCLC
HCT-116 colon = system: HCT-116 colon
HOP-62 NSCLC = system: HOP-62 NSCLC
HOP-92 NSCLC = system: HOP-92 NSCLC
HT29 colon = system: HT29 colon
IGROV1 ovarian = system: IGROV1 ovarian
KM12 colon = system: KM12 colon
LOX IMVI melanoma = system: LOX IMVI melanoma
M14 melanoma = system: M14 melanoma
MOLT-4 leukemia = system: MOLT-4 leukemia
NCI-H23 lung = system: NCI-H23 lung
NCI-H522 lung = system: NCI-H522 lung
OVCAR-3 ovarian = system: OVCAR-3 ovarian
OVCAR-5 ovarian = system: OVCAR-5 ovarian
RXF 393 renal = system: RXF 393 renal
SF-295 CNS = system: SF-295 CNS
SF-539 CNS = system: SF-539 CNS
SK-MEL-28 melanoma = system: SK-MEL-28 melanoma
SK-MEL-5 melanoma = system: SK-MEL-5 melanoma
SN12C renal = system: SN12C renal
SNB-19 CNS = system: SNB-19 CNS
SNB-75 CNS = system: SNB-75 CNS
SR leukemia = system: SR leukemia
U251 CNS = system: U251 CNS
UACC-257 melanoma = system: UACC-257 melanoma
UACC-62 melanoma = system: UACC-62 melanoma
UO-31 renal = system: UO-31 renal

Question: With `COc1ccc(/C=C/C(=O)c2ccccc2)cc1OC` as the compound, how does the TGI (CCRF-CEM leukemia) read?
Answer: The TGI was > 100 µM [sample A] and 8.3 µM [sample B].

Question: For `NC(CS)C(=O)NCCNc1ccc(NCCNC(=O)C(N)CS)c2c1C(=O)c1c(O)ccc(O)c1C2=O` (stereo not given), which TGI (DMS 114 small cell lung) is on record?
Answer: The TGI was 12.1 nM and 125 nM.

Question: And the TGI (DMS 273 small cell lung)?
Answer: The TGI was 12.2 nM and 440 nM.

Question: And the TGI (SK-OV-3 ovarian)?
Answer: Its TGI is 1.05 µM and 81.5 nM.

Question: How did the TGI (RPMI-8226 leukemia) turn out when `O=C(NC(Cc1ccccc1)C(=O)CCl)OCc1ccccc1` (stereo not given) was run?
Answer: The TGI was 7.58 µM [sample A] and > 100 µM [sample B].

Question: For `COC1C(C)OC(OC2CC(C)(O)Cc3cc4c(c(O)c32)C(=O)c2c(O)cc3c(c2C4=O)OC2OC3(C)C(O)C(N(C)C)C2O)C(OC)C1(C)OC` (stereo not given), which GI50 (A498 renal) is on record?
Answer: The GI50 was 4.18 nM and 172 nM.

Question: What about the TGI (A498 renal) of the same compound?
Answer: The TGI was 7.02 nM, 567 nM, 107 nM.

Question: And the TGI (A549 NSCLC)?
Answer: The TGI was 488 nM [1 test] and 12.7 µM [mean of 5 tests].

Question: What about the GI50 (COLO 205 colon) of the same compound?
Answer: The GI50 was 54.1 nM [mean of 3 tests] and 5.04 nM [mean of 5 tests].

Question: What about the TGI (COLO 205 colon) of the same compound?
Answer: Its TGI is 7.17 nM, 263 nM, 110 nM.

Question: And the GI50 (EKVX NSCLC)?
Answer: Its GI50 is 157 nM [mean of 3 tests] and 5.54 nM [mean of 4 tests].

Question: What about the TGI (HCT-116 colon) of the same compound?
Answer: The TGI was 6.13 nM, 1.11 µM, 5.67 µM.

Question: And the GI50 (HOP-62 NSCLC)?
Answer: Its GI50 is 153 nM [mean of 4 tests] and 4.55 nM [mean of 5 tests].

Question: And the TGI (HOP-92 NSCLC)?
Answer: The TGI was 8.83 nM, 322 nM, 530 nM.

Question: And the TGI (HT29 colon)?
Answer: Its TGI is 8.1 nM, 6.24 µM, 1.13 µM.

Question: And the GI50 (IGROV1 ovarian)?
Answer: The GI50 was 72.6 nM [mean of 3 tests] and 4.15 nM [mean of 5 tests].

Question: And the TGI (KM12 colon)?
Answer: Its TGI is 8.45 nM, 1.71 µM, 2.1 µM.

Question: And the TGI (LOX IMVI melanoma)?
Answer: The TGI was 4.09 nM, 757 nM, 3.36 µM.

Question: And the TGI (M14 melanoma)?
Answer: Its TGI is 6.75 nM and 685 nM.

Question: And the TGI (MOLT-4 leukemia)?
Answer: The TGI was 9.16 nM, 464 nM, 428 nM.

Question: And the TGI (NCI-H23 lung)?
Answer: The TGI was 6.88 nM, 288 nM, 166 nM.

Question: What about the TGI (NCI-H522 lung) of the same compound?
Answer: The TGI was 7.43 nM, 495 nM, 204 nM.

Question: What about the TGI (OVCAR-3 ovarian) of the same compound?
Answer: The TGI was 8.25 nM, 1.25 µM, 720 nM.

Question: What about the GI50 (OVCAR-5 ovarian) of the same compound?
Answer: The GI50 was 3.48 nM and 117 nM.

Question: And the TGI (OVCAR-5 ovarian)?
Answer: Its TGI is 5.8 nM, 1.42 µM, 1.16 µM.

Question: What about the GI50 (RPMI-8226 leukemia) of the same compound?
Answer: Its GI50 is 30.4 nM [mean of 3 tests] and 2.16 nM [mean of 4 tests].

Question: What about the TGI (RPMI-8226 leukemia) of the same compound?
Answer: Its TGI is 4.28 nM, 207 nM, 206 nM.

Question: And the TGI (RXF 393 renal)?
Answer: The TGI was 6.67 nM, 267 nM, 82.2 nM.

Question: What about the TGI (SF-295 CNS) of the same compound?
Answer: Its TGI is 7.99 nM, 703 nM, 293 nM.

Question: What about the TGI (SF-539 CNS) of the same compound?
Answer: Its TGI is 6.44 nM, 253 nM, 138 nM.

Question: And the TGI (SK-MEL-28 melanoma)?
Answer: Its TGI is 7.81 nM, 297 nM, 252 nM.

Question: What about the GI50 (SK-MEL-5 melanoma) of the same compound?
Answer: The GI50 was 53.2 nM [mean of 4 tests] and 4.51 nM [mean of 5 tests].

Question: And the TGI (SK-MEL-5 melanoma)?
Answer: Its TGI is 5.78 nM, 473 nM, 88.6 nM.

Question: And the GI50 (SK-OV-3 ovarian)?
Answer: Its GI50 is 114 nM [mean of 3 tests] and 4.07 nM [mean of 4 tests].

Question: And the GI50 (SN12C renal)?
Answer: The GI50 was 96.8 nM [mean of 4 tests] and 5.52 nM [mean of 5 tests].

Question: And the TGI (SNB-19 CNS)?
Answer: Its TGI is 5.49 nM, 4.96 µM, 2.08 µM.

Question: What about the TGI (SNB-75 CNS) of the same compound?
Answer: The TGI was 6.43 nM, 302 nM, 85.1 nM.

Question: What about the TGI (SR leukemia) of the same compound?
Answer: The TGI was 7.15 nM and 184 nM.

Question: And the TGI (U251 CNS)?
Answer: Its TGI is 5.64 nM, 7.24 µM, 1.45 µM.

Question: What about the TGI (UACC-257 melanoma) of the same compound?
Answer: Its TGI is 8.13 nM, 389 nM, 147 nM.

Question: What about the TGI (UACC-62 melanoma) of the same compound?
Answer: Its TGI is 5.42 nM, 118 nM, 39.2 nM.

Question: And the GI50 (UO-31 renal)?
Answer: The GI50 was 1.39 µM [mean of 3 tests] and 6.86 nM [mean of 5 tests].

Question: And the TGI (UO-31 renal)?
Answer: The TGI was 8.38 nM, 4.53 µM, 2.32 µM.

Question: `Nc1nc(N)c2nc(CNc3ccc(C(=O)NC(CCNC(=O)c4ccccc4C(=O)O)C(=O)O)cc3)cnc2n1` (stereo not given) was tested. Which TGI (SF-539 CNS) did it give?
Answer: Its TGI is 622 nM and > 100 µM.

Question: And the TGI (UACC-62 melanoma)?
Answer: Its TGI is 478 nM and > 100 µM.
